# Test results taken from article PMC4336329 (PLoS ONE, 2015).
# In all, about 310,000 compounds went through this assay and about 14,000 (4.5%) showed an effect of 50% or more. The effect is printed as a negative number. The list shows a part of the results.
# Molecular target: human ether-à-go-go-related gene (hERG) potassium channel (human, UniProt Q12809)
# Experiment: primary screen, population patch clamp on CHO cells stably expressing hERG
# 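Also: peak tail current of the secondary pulse compared with the same well before compound.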
# Sequence of human ether-à-go-go-related gene (hERG) potassium channel (Q12809 whole entry, looked up): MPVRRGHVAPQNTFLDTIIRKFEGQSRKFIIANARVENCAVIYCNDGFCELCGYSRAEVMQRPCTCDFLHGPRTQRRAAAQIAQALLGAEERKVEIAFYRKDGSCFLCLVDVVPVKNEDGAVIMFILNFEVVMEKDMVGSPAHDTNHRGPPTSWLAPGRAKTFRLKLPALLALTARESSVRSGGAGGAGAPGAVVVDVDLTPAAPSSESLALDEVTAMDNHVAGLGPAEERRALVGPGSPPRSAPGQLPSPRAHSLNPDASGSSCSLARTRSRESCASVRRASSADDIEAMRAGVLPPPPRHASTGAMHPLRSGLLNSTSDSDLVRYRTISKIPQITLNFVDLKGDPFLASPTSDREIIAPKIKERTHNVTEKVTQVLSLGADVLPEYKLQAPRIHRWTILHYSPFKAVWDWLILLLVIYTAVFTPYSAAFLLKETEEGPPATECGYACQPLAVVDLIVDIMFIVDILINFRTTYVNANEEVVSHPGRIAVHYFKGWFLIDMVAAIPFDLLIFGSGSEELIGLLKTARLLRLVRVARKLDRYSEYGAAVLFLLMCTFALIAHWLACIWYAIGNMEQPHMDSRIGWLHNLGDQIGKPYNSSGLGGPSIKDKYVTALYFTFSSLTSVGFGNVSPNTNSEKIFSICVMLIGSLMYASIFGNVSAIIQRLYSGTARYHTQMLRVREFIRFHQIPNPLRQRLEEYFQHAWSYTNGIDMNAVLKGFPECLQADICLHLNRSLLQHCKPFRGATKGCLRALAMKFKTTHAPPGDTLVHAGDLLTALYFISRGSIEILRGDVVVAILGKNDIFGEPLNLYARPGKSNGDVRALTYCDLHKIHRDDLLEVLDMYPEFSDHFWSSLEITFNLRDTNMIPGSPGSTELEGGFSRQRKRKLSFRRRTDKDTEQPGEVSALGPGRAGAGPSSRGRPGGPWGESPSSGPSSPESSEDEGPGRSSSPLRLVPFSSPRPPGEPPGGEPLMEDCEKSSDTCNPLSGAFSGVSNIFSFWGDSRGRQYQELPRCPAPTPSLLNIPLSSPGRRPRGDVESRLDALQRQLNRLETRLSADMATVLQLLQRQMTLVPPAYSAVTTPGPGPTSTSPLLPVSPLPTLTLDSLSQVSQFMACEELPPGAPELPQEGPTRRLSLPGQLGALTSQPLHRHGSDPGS
row,Compound,"hERG current change (%, negative = inhibition) at 10uM [%]"
1,Cc1ccc(NS(=O)(=O)c2ccc(-c3coc(C)n3)cc2)c(C)c1,15.6
2,O=c1c2ccccc2c(-c2n[nH]c(=S)o2)nn1Cc1ccccc1,19.4
3,Cc1cccc(NC(=O)Cn2cnc3c(cnn3-c3ccc(F)cc3)c2=O)c1C,2.99
4,CC(C)(C)OC(=O)Nc1ccc([C@@H](NC(=O)OC(C)(C)C)C(=O)OC(C)(C)C)cc1,18.3
5,Br.CC(=O)Nc1nc(C)c(-c2csc(Nc3ccc(O)cc3)n2)s1,-13.9
6,COc1ccc(N2CCN(C(=O)Cn3nnc(-c4ccc(OC)c(OC)c4)n3)CC2)cc1,4.33
7,Cc1cccc(OCC(=O)NCc2nc(-c3ccccc3)no2)c1,14.2
8,c1c2c(cc3sc(N4CCCCC4)nc13)OCCO2,-8.44
9,Cc1ccc(OCC(=O)Nc2nnc(S(=O)(=O)N3CCCCCC3)s2)cc1C,9.72
10,Cc1ccc(OCC(O)Cn2c(=N)n(Cc3ccccc3)c3ccccc32)cc1.Cl (stereo not shown),-81.6
11,CNC(=S)N/N=C/c1cccc(OCc2ccccc2F)c1,18.3
12,CCc1ccc(CN2CCCC(C(=O)Nc3ccccc3-c3ccc(OC)cc3)C2)o1 (stereo not shown),-33.9
13,Cc1cc(C(=O)CN2C(=O)C(=O)N(Cc3ccccc3)C2=O)c(C)n1-c1ccccc1F,15.1
14,O=C(NCc1ccc2c(c1)OCO2)c1ccc2c(c1)OCO2,8.07
15,COCCN(C(=O)CSc1nncn1-c1ccccc1)c1c(N)n(Cc2ccccc2)c(=O)[nH]c1=O,11.3
16,CCOC(=O)Nc1ccc2c(c1)N(C(=O)CCN1CCOCC1)c1ccccc1S2.Cl,-7
17,CCC1=C(OC(=O)N(CC)CC)N2C(=O)OC(=NCc3ccccc3)[C@]2(C)[C@H]2C1=CC[C@H]1C(=O)N(CC(=O)OC)C(=O)[C@H]12,-1.33
18,O=C(Nc1ccccc1)Nc1cc(Cl)cc(Cl)c1,13.5
19,Cn1cnnc1SC/C(O)=C(\C#N)c1nc2ccccc2[nH]1,24.1
20,Cc1ccc(SCC(=O)Nc2cc([N+](=O)[O-])ccc2O)cc1,12.2
21,Cc1oc(-c2ccc(Cl)cc2)nc1CS(=O)CC(=O)NCCCN1CCCC(C)C1 (stereo not shown),-36.8
22,O=P(Nc1ccccc1)(Nc1ccccc1)Oc1ccccc1,-9.29
23,CCOc1ccc(NC(=O)CN(C)C(=O)C2CCCC2)cc1OCC,27.8
24,CC(C)N(C(=O)COC(=O)c1ccc(O)cc1)C(C)C,-1.54
25,Cc1ccc(NC(=O)c2cccc(S(=O)(=O)N3CCCc4ccccc43)c2)nc1,-13.9
26,N#CC(C#N)=C1C=CC=CN1/C(=C\c1ccco1)C(=O)c1ccc(Br)cc1,-46.5
27,COc1ccccc1OCCCCCCN1CCN(C)CC1.O=C(O)C(=O)O,-5.83
28,COc1cc(OC)cc(C(=O)Nc2ccc(-c3nc4ccccc4o3)c(O)c2)c1,1.35

row,Compound,"hERG current change (%, negative = inhibition) at 10uM [%]"
1,CN=C1SC(CC(=O)Nc2sc3c(c2C#N)CCCC3)C(=O)N1C (stereo not shown),22.4
2,C/C(=N\Nc1ccccc1Cl)c1ccc(-n2ccnc2)cc1,-7.1
3,O=C(Oc1ccc(OC(=O)N2CCCCC2)cc1)c1ccccc1,-2.07
4,COc1nc(N2CCOCC2)nc(C)c1[N+](=O)[O-],-13.5
5,CCN(Cc1ccc(OC)c(F)c1)C(=O)C1CCCO1 (stereo not shown),36.5
6,COC(=O)C1CCCCN1C(=O)c1ccc2oc(C(C)C)nc2c1 (stereo not shown),4.1
7,COc1cccc(C(=O)N2CCN(Cc3ccccn3)CC2)c1.O=C(O)C(=O)O,18.8
8,Cc1ccnc(NC(=O)CCC(=O)N(CC(=O)NC(C)(C)C)c2ccc3c(c2)OCCO3)c1,17.8
9,O=C1c2ccccc2C(Nc2ccccc2)N1c1cccnc1 (stereo not shown),-22.1
10,O=C(NCCc1ccccc1)c1n[nH]c2ccccc12,12.4
11,CC1=CSC2=NC(C(F)(F)F)(C(F)(F)F)NC(=O)N12,-1.5
12,CC(Sc1nnnn1-c1ccccc1)C(=O)NC1CCCC1 (stereo not shown),-6.49
13,O=C(O)c1c(Cl)cccc1Cl,22.2
14,CCc1nnc(NC(=O)C23CC4CC(CC(C4)C2)C3)s1,12.3
15,CCOc1ccc(NC(=O)CN(C)C(=O)c2ccc(OCC3CCCO3)cc2)cc1OCC (stereo not shown),6.31
16,Cc1ccc(-n2ncc3ccccc3c2=O)cc1Cl,-3.72
17,Cc1cc(O)c(-c2n[nH]c3c2C(c2cccc(O)c2)N(Cc2cccnc2)C3=O)cc1Cl (stereo not shown),11.4
18,Cc1nc(C(=O)N2CCc3c([nH]c4ccccc34)C2c2ccccn2)cs1 (stereo not shown),-7.68
19,COC(=O)CSc1[nH]c2cc(C)ccc2c1[N+](=O)[O-],21.5
20,COc1cc2c(cc1NC(=O)CSc1nc3ccccc3[nH]1)oc1ccccc12,15.3
21,Cc1nn(C)cc1-c1n[nH]c(=S)n1-c1ccc(F)cc1,22.9
22,CCCCSc1nnc(-c2ccc(NC(=O)CCc3ccccc3)cc2)n1C,20.2
23,Nc1ccc(C(=O)OCCCc2nc3ccccc3[nH]2)cc1,12.2
24,Cc1nnsc1C(=O)N1CCCC(N2CCN(c3ccc(F)cc3)CC2)C1 (stereo not shown),-12.3
25,O=C(NCc1ccccc1)c1cc[n+]([O-])cc1,4.76
26,CCN1C(=O)[C@@H]2[C@@H](c3ccc(-c4ccccc4)cc3)N3CCCC[C@@]3(C(=O)OC)[C@@H]2C1=O.O=C(O)C(F)(F)F,13.9
27,CCOC(=O)C1(Cc2cccc(OC)c2)CCN(Cc2cc(OC)ccc2OC)CC1,-67.2
